Drawing on PubChem BioAssay AID1745853 (National Center for Advancing Translational Sciences (NCATS), 2022), this text covers activity change, negative = inhibition for 38 molecules.

What all share (assay): Primary Screen for Target Class Profiling of Small Molecule Inhibitors of Methyltransferases
Assay [1] deals with Glycine N-methyltransferase (Homo sapiens) (UniProt Q14749). The settings on record: purified enzyme, MTase-Glo SAH luminescence; measured here: GNMT inhibition; at 40 µM; stronger effect = lower value. A digest of the protocol:
(§1)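 Each enzyme was reacted with SAM and its substrate, with compounds tested once at 40 uM; SAH formed was read by MTase-Glo luminescence.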

Assay [2] concerns the target Guanidinoacetate N-methyltransferase (Homo sapiens) (UniProt Q14353). The settings on record: purified enzyme, MTase-Glo SAH luminescence; measured here: GAMT inhibition; at 40 µM; stronger effect = lower value. A digest of the protocol: as §1
The target in assay [3] is Histamine N-methyltransferase (Homo sapiens) (UniProt P50135). The settings on record: purified enzyme, MTase-Glo SAH luminescence; measured here: HNMT inhibition; at 40 µM; stronger effect = lower value. A digest of the protocol:
as §1

Assay [4] addresses Nicotinamide N-methyltransferase (Homo sapiens) (UniProt P40261). The settings on record: purified enzyme, MTase-Glo SAH luminescence; measured here: NNMT inhibition; at 40 µM; stronger effect = lower value. The procedure, abridged: as §1
The target of assay [5] is Phenylethanolamine N-methyltransferase (Homo sapiens) (UniProt P11086). The following applies: purified enzyme, MTase-Glo SAH luminescence; measured here: PNMT inhibition; at 40 µM; stronger effect = lower value. A digest of the protocol:
as §1

The other results are listed elsewhere or left out. The main result of the screen is listed elsewhere. These columns were measured beside it and carry no call.
% is set by controls: 0 for no effect and ±100 for the full control effect.

On to `CCS(=O)(=O)N1CC(F)(F)C[C@H]1c1nc(-c2cccnc2)no1`, for which the activity change, negative = inhibition in assay [1] was -2.12%; in assay [2], -1.29%; in assay [3], 1.17%; in assay [4], -10.2%; in assay [5], -3.25%.
Take `NC1Nc2ccccc2C1(N)CC1NC(=O)C(Cc2ccccc2)NC(=O)C(Cc2ccccc2)NC1=O` (stereo not given): the activity change, negative = inhibition in assay [1] was 2.67%; in assay [2], 4.09%; in assay [3] it was 3.42%; in assay [4], -9.55%; in assay [5] it was -3.54%.
With `CN(C)C[C@H]1C[C@@H](CO)CN(C(=O)c2ccccc2-c2ccc(F)cc2)C1`, the activity change, negative = inhibition in assay [1] is -2.79%; in assay [2] it was -5.2%; in assay [3], -1.4%; in assay [4], -6.26%; in assay [5] it was -18.3%.
Consider `C=C1CC[C@@]2(OC1)O[C@H]1CC3[C@@H]4CC=C5C[C@@H](O)C[C@@H](O[C@@H]6OC[C@H](O)[C@H](O)[C@H]6O[C@@H]6O[C@@H](C)[C@H](O)[C@@H](O)[C@H]6O)[C@]5(C)C4CC[C@]3(C)[C@H]1[C@@H]2C` (stereo not given in full), for which the activity change, negative = inhibition is 0% in assay [1]; 10.1% in assay [2]; -0.804% in assay [3]; -3.64% in assay [4]; 6.31% in assay [5].
For `O=C1NC(=O)C(c2cn(-c3ccccc3)nc2-c2ccc(F)cc2)N1` (stereo not given) the same measures were -7.26%, -7.5%, 1.69%, -18.1% and 1.71%.
Turning to `CC(C)c1ccc(S(=O)(=O)c2nnn3c2nc(N)c2ccccc23)cc1`, the activity change, negative = inhibition in assay [1] was -10.2%; in assay [2], -2.58%; in assay [3], -10.6%; in assay [4], -16.3%; in assay [5], -12.6%.
For the molecule `CCCn1c(=O)c2cc(Cl)ccc2n2c(SCC(=O)NCc3cccc(OC)c3)nnc12`, the activity change, negative = inhibition in assay [1] was -3.01%; in assay [2], 4.16%; in assay [3] it was 7.09%; in assay [4] it was -4.85%; in assay [5], 0.798%.
In the case of `CCOc1ccc(-c2cc(NC(=O)c3c(F)cccc3F)c(C(=O)O)s2)cc1`, the activity change, negative = inhibition was -65.5% in assay [1]; -38.9% in assay [2]; -4.79% in assay [3]; -46.3% in assay [4]; -9.84% in assay [5].
Regarding `CC(=O)Nc1cccc(Nc2ncnc(N3CCC(OCc4ccc(OC(F)(F)F)cc4)CC3)n2)c1C`, the activity change, negative = inhibition in assay [1] was -2.73%; in assay [2], 13.5%; in assay [3], 6.28%; in assay [4], -11.8%; in assay [5], 6.45%.
In the case of `O=C(OCC1=CC(O)C2C=CO[C@@H](O[C@@H]3O[C@H](CO)[C@@H](O)[C@H](O)[C@H]3O)C12)c1ccccc1` (stereo not given in full), the activity change, negative = inhibition in assay [1] was 0%; in assay [2], 8.59%; in assay [3] it was 8.19%; in assay [4] it was -2.46%; in assay [5], 7.33%.
Taken in the same sequence, the figures for `CCN1C(=O)c2c(C(=O)NCc3ccc(OC)c(OC)c3)ncn2CC1(C)C(=O)NC1CCCC1` (stereo not given) were -5.52%, 0%, 11%, 2.93% and 5.68%.
Consider `Cn1nccc1C(=O)N1CC(c2nc(CCOCC3CCCC3)no2)C1`, for which the activity change, negative = inhibition in assay [1] was 2.59%; in assay [2], -9.12%; in assay [3] it was 2.53%; in assay [4], -0.024%; in assay [5] it was 2.62%.
`Cc1cc(F)ccc1NC(=O)c1cc2n(n1)CC(C)(C(=O)NC1CCCCC1)N(C)C2=O` (stereo not given): the activity change, negative = inhibition was 7.25% in assay [1]; 0.956% in assay [2]; 4.18% in assay [3]; -0.616% in assay [4]; -0.885% in assay [5].
On to `CCN(Cc1cnn(CC)c1)C(=O)C1COc2ccccc2C1` (stereo not given), for which the activity change, negative = inhibition in assay [1] is -2.02%; in assay [2], 1.76%; in assay [3], 1.29%; in assay [4], 3.76%; in assay [5] it was 0.495%.
With `CCOC(=O)CCNC(=O)N1CCCC(c2nc(C(C)C)no2)CCNC(=O)CC1` (stereo not given), the activity change, negative = inhibition in assay [1] is -4.54%; in assay [2] it was -8.23%; in assay [3], -3.35%; in assay [4] it was -15%; in assay [5] it was -10.6%.
Taken in the same sequence, the figures for `Cn1ccc(C(=O)N[C@@H]2COCC[C@@H]2OCc2cscn2)cc1=O` were -4.73%, -0.253%, 1.93%, -3.48% and -21.5%.
On to `CC(=O)O[C@@H]1[C@H](OC(C)=O)C[C@@]2(C)C(CC[C@@H](C)[C@]23Cc2c(O)cc4c(c2O3)CN([C@@H](CCC(=O)O)C(=O)O)C4=O)C1(C)C` (stereo not given in full), for which the activity change, negative = inhibition in assay [1] was 0.096%; in assay [2], -1.64%; in assay [3], 11.7%; in assay [4] it was -14.6%; in assay [5] it was -8.73%.
In the case of `CCOC(=O)c1cc2n(n1)CC(C)(C(=O)NC1CCC(C)CC1)N(c1cccc(Cl)c1C)C2=O` (stereo not given), the activity change, negative = inhibition was -0.602% in assay [1]; 3.06% in assay [2]; 0.438% in assay [3]; -3.15% in assay [4]; -1.54% in assay [5].
For the molecule `CN(Cc1cccs1)c1ncnc2ccc(-c3ccc4c(c3)OCO4)cc12`, the results for the activity change, negative = inhibition in assay [2], in assay [4] and in assay [5] were -78.6%, -83.6% and -85%, respectively.
With `CN1CC(=O)N(C2CCCNCC2)Cc2c1ncnc2N1CCCC1CO` (stereo not given), the activity change, negative = inhibition in assay [1] is -1.76%; in assay [2], -3.01%; in assay [3], 0.254%; in assay [4] it was -5.82%; in assay [5], -0.608%.
`O=S(=O)(c1ccc(Cl)cc1)c1nnn2c1nc(NCc1ccc3c(c1)OCO3)c1ccccc12`: the activity change, negative = inhibition in assay [1] is 1.22%; in assay [2] it was 6.87%; in assay [3], 1.88%; in assay [4], -2.02%; in assay [5], -5.49%.
For `COc1ccc(OC)c(S(=O)(=O)N2CCC(n3c(C)cnc3C3CCOCC3)CC2)c1` the same measures were -10.4%, 3.9%, -6.66%, -8.41% and -3.81%.
Taken in the same sequence, the figures for `CCCn1c(=O)c2ccccc2n2c(SCc3ccccc3F)nnc12` were -17.8%, 5.73%, -1.13%, -14.7% and 1.37%.
With `Cc1noc(C)c1CN1CCOC[C@H](O)C1`, the activity change, negative = inhibition in assay [1] was -0.488%; in assay [2], -1.78%; in assay [3] it was 1.75%; in assay [4] it was 0.808%; in assay [5] it was -1.79%.
On to `CC(C)(C)c1onc(OCP(=O)(O)O)c1CC(N)C(=O)O` (stereo not given), for which the activity change, negative = inhibition is 4.62% in assay [1]; 21.4% in assay [2]; 17.4% in assay [3]; -8.3% in assay [4]; 5.37% in assay [5].
For `Cc1nc(C2(C)CCN(C(=O)CCc3cc(Cl)no3)CC2)no1` the same measures were -1.62%, 1.13%, 0.988%, -1.46% and -0.778%.
For `CCOC(=O)c1cc2n(n1)CC(C)(C(=O)NCc1ccccc1OC)N(CCc1ccc(SC)cc1)C2=O` (stereo not given), the activity change, negative = inhibition in assay [1] turned out to be 0.877%; in assay [2], 5.19%; in assay [3] it was 1.55%; in assay [4] it was 3.06%; in assay [5], 4.07%.
For the molecule `O=c1c2ccccc2n2c(=O)n(Cc3ccc(Cl)cc3)nc2n1Cc1ccccc1`, the activity change, negative = inhibition is 4.46% in assay [1]; 0% in assay [2]; 8.3% in assay [3]; 5.96% in assay [4]; 7.07% in assay [5].
Turning to `CC(C)Cn1c(=O)c2ccc(C(=O)NC3CCCC3)cc2n2c(=O)n(Cc3ccc(F)cc3Cl)nc12`, the activity change, negative = inhibition in assay [1] is 6.5%; in assay [2], 2.49%; in assay [3] it was 13.4%; in assay [4], 1.64%; in assay [5] it was 8.38%.
On to `O=C(Cn1c(=O)oc2cc(S(=O)(=O)N3CCCC3)ccc21)N1CCN(Cc2ccccc2)CC1`, for which the activity change, negative = inhibition is 15.9% in assay [1]; 0% in assay [2]; 10.8% in assay [3]; 1.34% in assay [4]; 5.26% in assay [5].
Take `Cc1ccc(CN2C(=O)c3cc4occc4n3CC2(C)C(=O)NC2CCC(C)CC2)cc1` (stereo not given): the activity change, negative = inhibition in assay [1] is -2.43%; in assay [2], 3.18%; in assay [3], 3.89%; in assay [4], -7.34%; in assay [5] it was 0.241%.
As to `CC(C)OCCCn1c(=O)c2ccccc2n2c(=O)n(Cc3ccccc3F)nc12`, the activity change, negative = inhibition in assay [1] was -5.87%; in assay [2], 1.06%; in assay [3] it was -2.12%; in assay [4] it was -14.1%; in assay [5], -4.5%.
Taken in the same sequence, the figures for `CCc1ccc(S(=O)(=O)c2nnn3c2nc(NCc2ccc(OC)cc2)c2ccccc23)cc1` were -0.547%, 1.41%, 6.88%, 10.6% and 1.41%.
For `CCOc1ccc(N2C(=O)Cn3cccc3C2C(=O)NC2CCCCC2C)cc1` (stereo not given) the same measures were 12.4%, 1.75%, 10.9%, 1.16% and 3.4%.
For `CC(C)Cn1c(=O)c2ccc(C(=O)NC(C)C)cc2n2c(SCc3c(F)cccc3Cl)nnc12` the same measures were -0.393%, -3.31%, 9.29%, -6.33% and -1.48%.
With `CCc1cccc2c3c([nH]c12)[C@@](CC)(CC(=O)O)OCC3`, the activity change, negative = inhibition is -8.33% in assay [1] and 0.074% in assay [3].
On to `CCN=C1N[C@@H]2[C@@H](O)[C@H](O)[C@@H](CO)O[C@@H]2S1`, for which the activity change, negative = inhibition in assay [1] is 2.31%; in assay [2], -3.28%; in assay [3] it was -1.36%; in assay [4] it was -13.9%; in assay [5] it was -9.09%.
`COc1cc(-c2cn(C3CCc4c(F)cccc4N(CC(F)(F)F)C3=O)nn2)ccc1-n1cnc(C)c1` (stereo not given): the activity change, negative = inhibition in assay [1] is -9.49%; in assay [2] it was -4.03%; in assay [3], -34.4%; in assay [4] it was -28.9%; in assay [5] it was -3.57%.
